# A collection of fitness landscapes (doi:10.1126/science.1257360)
# The list shows a part of the results.
# B1: PhoQ; a variant is named by its letters at X, in order, P23837 (parent)
# chain: MKKLLRLFFPLSLRVRFLLATAAVVLVLSLAYGMVALIGYSVSFDKTTFRLLRGESNLFYTLAKWENNKLHVELPENIDKQSPTMTLIYDENGQLLWAQRDVPWLMKMIQPDWLKSNGFHEIEADVNDTSLLLSGDHSIQQQLQEVREDDDDAEMTHSVAVNVYPATSRMPKLTIVVVDTIPVELKSSYMVWSWFIYVLSANLLLVIPLLWVAAWWSLRPIEALAKEVRELEEHNRELLNPATTRELTSLVRNLNRLLKSERERYDKYRTTLTDLTHSLKTPLXXLQXXLRSLRSEKMSVSDAEPVMLEQISRISQQIGYYLHRASMRGGTLLSRELHPVAPLLDNLTSALNKVYQRKGVNISLDISPEISFVGEQNDFVEVMGNVLDNACKYCLEFVEISARQTDEHLYIVVEDDGPGIPLSKREVIFDRGQRVDTLRPGQGVGLAVAREITEQYEGKIVAGESMLGGARMEVIFGRQHSAPKDE
# Variants of: B1
# Experiment: enrichment ratio after two sorts for PhoP signalling (ratio (wild type AVST 3.29)); higher = more functional
# Details: with PhoP (E. coli)
row,Variant,enrichment ratio
1,IMIG,≤ 0.25
2,FSTE,≤ 0.25
3,PVFV,≤ 0.25
4,IQLQ,≤ 0.25
5,WDPS,≤ 0.25
6,GTLY,6.3
7,ASRK,≤ 0.25
8,LSPP,≤ 0.25
9,YSTF,≤ 0.25
10,EYST,≤ 0.25
11,ENKR,≤ 0.25
12,LIGL,≤ 0.25
13,MAMT,≤ 0.25
14,MICY,≤ 0.25
15,LTCV,≤ 0.25
16,ELWE,≤ 0.25
17,KSCP,1.04
18,TREK,≤ 0.25
19,NVAR,≤ 0.25
20,TKSV,4.01
21,WDRW,≤ 0.25
22,HTSA,≤ 0.25
23,SPRF,≤ 0.25
24,AFNE,≤ 0.25
25,IIFP,≤ 0.25

row,Variant,enrichment ratio
1,SRAR,≤ 0.25
2,PRNP,≤ 0.25
3,GMHH,≤ 0.25
4,GETN,≤ 0.25
5,FIGP,≤ 0.25
6,ELDF,≤ 0.25
7,ECDI,≤ 0.25
8,VCQS,≤ 0.25
9,LDAQ,≤ 0.25
10,YYKH,≤ 0.25
11,FCLV,7.03
12,MFYG,≤ 0.25
13,ESDI,≤ 0.25
14,DCMG,≤ 0.25
15,KIEP,≤ 0.25
16,QVII,≤ 0.25
17,FEPC,≤ 0.25
18,QLTE,≤ 0.25
19,MASS,≤ 0.25
20,ACLA,11.6
21,FRCR,≤ 0.25
22,YAPG,≤ 0.25
23,YTRR,≤ 0.25
24,YYSL,≤ 0.25
25,GHQK,≤ 0.25

row,Variant,enrichment ratio
1,KGAA,≤ 0.25
2,FWMC,≤ 0.25
3,PKGT,≤ 0.25
4,WVYP,≤ 0.25
5,QNMS,≤ 0.25
6,PYCC,≤ 0.25
7,WHYR,≤ 0.25
8,EMIC,≤ 0.25
9,DIAQ,≤ 0.25
10,YRIW,≤ 0.25
11,FGTS,≤ 0.25
12,FWDT,≤ 0.25
13,NYCL,≤ 0.25
14,YEED,≤ 0.25
15,CLPR,≤ 0.25
16,ERCH,≤ 0.25
17,DNSS,≤ 0.25
18,HSML,9.71
19,DVFA,≤ 0.25
20,DHKE,≤ 0.25
21,WAMR,≤ 0.25
22,GMAI,8.69
23,NRIS,≤ 0.25
24,FVWG,≤ 0.25
25,SKIS,3.41

row,Variant,enrichment ratio
1,QLFA,≤ 0.25
2,LNVW,≤ 0.25
3,QIPE,≤ 0.25
4,DLDS,≤ 0.25
5,LELT,4.72
6,EYRP,≤ 0.25
7,VPRL,≤ 0.25
8,HPMA,≤ 0.25
9,DMAV,≤ 0.25
10,LCGN,≤ 0.25
11,NYYV,≤ 0.25
12,AKSE,≤ 0.25
13,SDTV,13.5
14,RVTE,≤ 0.25
15,RVEL,≤ 0.25
16,QGVP,≤ 0.25
17,TLAW,0.571
18,RNRG,≤ 0.25
19,KVQF,≤ 0.25
20,AMQI,≤ 0.25
21,IPWS,≤ 0.25
22,YAPI,≤ 0.25
23,WMCD,≤ 0.25
24,LLPW,≤ 0.25
25,MFDW,≤ 0.25

row,Variant,enrichment ratio
1,MMRT,≤ 0.25
2,DHYQ,≤ 0.25
3,HYGG,≤ 0.25
4,NFDH,≤ 0.25
5,WNLY,≤ 0.25
6,EQCF,≤ 0.25
7,DTMF,≤ 0.25
8,RSSG,≤ 0.25
9,NSEA,≤ 0.25
10,GLTL,8.42
11,WCVW,≤ 0.25
12,LFWT,≤ 0.25
13,PGQR,≤ 0.25
14,AHDP,≤ 0.25
15,EINW,≤ 0.25
16,ILDF,≤ 0.25
17,LWQT,≤ 0.25
18,PNSQ,≤ 0.25
19,SCEP,≤ 0.25
20,ARDS,≤ 0.25
21,ARFT,≤ 0.25
22,QHYM,3.6
23,MYEI,≤ 0.25
24,PCCF,≤ 0.25
25,KCNI,≤ 0.25

row,Variant,enrichment ratio
1,RMHV,≤ 0.25
2,PWPE,≤ 0.25
3,AASE,≤ 0.25
4,NVFN,≤ 0.25
5,QYFY,≤ 0.25
6,VTAW,≤ 0.25
7,IVWM,≤ 0.25
8,IPMH,≤ 0.25
9,QEGL,≤ 0.25
10,HWCT,≤ 0.25
11,NEKC,≤ 0.25
12,TRMT,≤ 0.25
13,EPVE,≤ 0.25
14,SSTA,6.29
15,KKTR,≤ 0.25
16,HFRN,≤ 0.25
17,KIRY,≤ 0.25
18,IMNG,≤ 0.25
19,QFRL,≤ 0.25
20,RHIN,≤ 0.25
21,TSMH,10.3
22,SVFE,≤ 0.25
23,AVFV,≤ 0.25
24,PVFH,≤ 0.25
25,TNTE,≤ 0.25

row,Variant,enrichment ratio
1,TKTG,≤ 0.25
2,VMGN,≤ 0.25
3,RNSN,≤ 0.25
4,RNYD,≤ 0.25
5,VNVR,≤ 0.25
6,VCGT,≤ 0.25
7,SICY,5.22
8,HWAA,≤ 0.25
9,KCHD,≤ 0.25
10,WYLD,≤ 0.25
11,TWGN,≤ 0.25
12,HFYL,≤ 0.25
13,HMRM,≤ 0.25
14,MNLE,2.03
15,IWLQ,≤ 0.25
16,WYNQ,≤ 0.25
17,VWAL,≤ 0.25
18,HPHM,≤ 0.25
19,DAII,≤ 0.25
20,PAYF,≤ 0.25
21,PHYW,≤ 0.25
22,SSWL,10.6
23,PPFK,≤ 0.25
24,ATWW,≤ 0.25
25,KFCF,≤ 0.25

row,Variant,enrichment ratio
1,QTFQ,3.61
2,HCSG,≤ 0.25
3,WGKY,≤ 0.25
4,SFAM,≤ 0.25
5,YKEL,≤ 0.25
6,LVGH,≤ 0.25
7,RWPF,≤ 0.25
8,DRSY,≤ 0.25
9,VCAK,≤ 0.25
10,YMNE,≤ 0.25
11,TFVR,≤ 0.25
12,PVQM,≤ 0.25
13,GPLW,≤ 0.25
14,NQPS,≤ 0.25
15,AITS,9.53
16,FQSI,≤ 0.25
17,DRSI,≤ 0.25
18,HNQA,≤ 0.25
19,PCYT,≤ 0.25
20,MYNE,≤ 0.25
